# Assay results published in ChEMBL document CHEMBL4888484, “Replenishing the malaria drug discovery pipeline: Screening and hit evaluation of the MMV Hit Generation Library 1 (HGL1) against asexual blood stage Plasmodium falciparum ,using a nano luciferase reporter read-out” (2022).
# About 540 (0.36%) of roughly 150,000 compounds showed an effect of 50% or more. This is one part of the list.
# System: Plasmodium falciparum
# Test: Primary screen in NF54 nanoGlo assay, in single point, at 2uM, 72h; a lower Z score goes with more inhibition
# Format: functional, Erythrocyte
# Conditions: timepoint 72 hour
SMILES,% Inhibition [%],Z score
COc1ccc(CN2C(=O)COC[C@H]2C(=O)Nc2ccc(F)c(F)c2)cc1,-14,1.66
Cc1cc(C(=O)N2CCOC[C@@H]2CC2CCC2)no1,1,-0.08
Cc1ccc2nc(Cc3ccccc3)c(NC(=O)c3ccc(Cl)c(Cl)c3)n2c1,-4,0.65
CC(C)c1nccn1C1CN(C(=O)c2nccc3ccccc23)C1,-11,1.39
Cc1c(C(=O)Nc2nccs2)cccc1-n1cnnc1,4,-0.77
CN1CCC(CNC(=O)C[C@H]2CCCCC2(C)C)CC1,-17,2.26
O=C1CN(Cc2nc(-c3ccc(F)cc3)no2)CCN1,-9,1.44
Cc1nn(C)cc1S(=O)(=O)N1CC[C@@H](C(F)(F)F)n2nc3nc(C(F)(F)F)cc(C)c3c21,5,-0.6
CCc1nnc(CNC(=O)Cn2nc(C)n(Cc3ccccc3)c2=O)s1,-7,1.29
Cn1cncc1CN1CCC(N2C[C@H](COc3ccc(F)cc3)OCC2=O)CC1,-7,0.93
CN=C(NCCc1ccncc1C)N[C@@H](C)c1ccccc1OC,9,-1.1
Cc1c(NC(=O)c2nc(C(C)C)cs2)cccc1C(=O)N1CCc2sccc2C1,-3,0.58
Cc1ncsc1CN1CCC(N2CC3(CCCC3)[C@H]2c2ccccc2)CC1,-7,1.11
Cc1ccc(NC(=O)c2ccc(-c3c(-c4ccc(F)cc4)ncn3C3CCCCC3)o2)c(Cl)c1,0,0.01
Cc1cc(C(=O)N2CCN(Cc3cc4n(n3)CCC4)[C@H](C)C2)n[nH]1,1,-0.23
CC(=O)N[C@@H]1C(=O)N(CCCOc2cccc(C)c2)c2c(C)cccc21,-14,2.64
Cc1cc(CC(=O)NCc2nc(C)c3c(n2)CCCC3)on1,-9,0.84
CC(C)c1nsc(CN[C@H](c2cnn(C)c2)C2(CO)CCC2)n1,-10,1.12
CN(C[C@H]1CCN(c2ccccc2)C1)C(=O)CCn1ccc(=O)[nH]c1=O,0,0
Cc1cccc2[nH]c([C@H]3CCCN(C(=O)C4CCOCC4)C3)nc12,-12,2.22
O=S(=O)(NCC#CCN1CCc2ccccc2C1)c1ccc(Cl)s1,-1,0.06
NC(=O)c1cccc(-c2ccc([C@@H](N)c3ccccc3)cc2)c1,3,-0.62
Cc1cc(C)cc(NC(=O)C2[C@@H]3C=C[C@]4(O3)C(C(=O)NC3CCCCC3)N(C3CCC(C)CC3)C(=O)[C@H]24)c1 (stereo partly drawn),-10,1.62
CC[C@H](NC(=O)c1[nH]nc(C)c1Cl)C1CC(O)C1 (stereo partly drawn),-19,2.52
Cc1cc2c(Cc3ccccc3)n[nH]c(=O)c2c(=O)[nH]1,-10,1.6
CNC(=O)c1cccc(S(=O)(=O)N[C@H]2CCOC[C@@H]2OCC2CC2)c1,-6,1.14
Cc1ccc([C@@]2(O)CN3CCCCCC3=[N+]2c2ccc3c(c2)OCO3)cc1,3,-0.33

SMILES,% Inhibition [%],Z score
O=C(CCc1ccccn1)NC[C@@H](CO)Cc1ccncc1Cl,-19,2.01
O=C(CCN1CCCCC1=O)N[C@@H]1CCc2ccccc21,-24,2.14
C[C@H](CO)N(C)Cc1csc(Cn2ncc3ccccc3c2=O)n1,-8,1.06
COc1cc(C)ccc1OC(=O)c1c[nH]nc1C1CC1,24,-2.74
O=C(c1ccccn1)N1CC(S(=O)(=O)N2CCc3ccccc32)C1,-3,0.38
c1ccc(OCc2nc3ccccc3n2CC2CCN(Cc3ccccn3)CC2)cc1,3,-0.32
CCN(Cc1noc(C2CCC2)n1)c1cc([C@H]2CCOC2)ncn1,-7,1.47
CCc1cc(C#N)c(NC(=O)c2cc(C3CC3)n(C)n2)s1,-8,1.12
c1coc(C(CNC2COCc3ncccc32)N2CCCC2)c1 (stereo not drawn),4,-0.78
O=C(Nc1ccc2c(c1)OCO2)c1cccnc1O,-6,0.58
CCOC(=O)N1CCN(C(=O)Cc2cc(-c3ccc4c(c3)C[C@H](C)O4)on2)CC1,-4,0.7
O=C(C[C@@H]1CCNC[C@@H]1Cc1cc(CC2CCCCC2)on1)N1CCOCC1,-5,0.71
CC1Cc2ccccc2N1C(=O)CS(=O)(=O)CC1CCCO1 (stereo not drawn),0,0.06
Cc1csc(NC(=O)c2ccnc(N(C)C)c2)n1,-9,0.86
CCC1(O)CN(c2nc(C(C)(C)C)ns2)C1,10,-1.05
COc1cc(CNC(C)COC2CCOC2)ccc1F (stereo not drawn),-12,1.57
N=C(N)Nc1ccc(Br)cc1,8,-1.37
Cc1[nH]ncc1C(=O)NC1CC(=O)N(C2CC2c2ccccc2)C1 (stereo not drawn),-10,1.96
C[C@H](NCc1c(Br)c2ccccc2n1C)c1cnn(C)c1,-18,2.46
CN(C)S(=O)(=O)N1CCC(OCc2noc([C@@H]3CCCO3)n2)CC1,-1,0.08
O=C(Cc1coc2ccccc12)N1CCOC[C@@H]1CCO,-10,1.71
Cc1ccc(Nc2c(-c3ccc(N4CCOCC4)cc3)nc3c(C)cccn23)cc1,18,-1.78
C=CCNC(=O)NCc1cccc(Br)c1OC,0,0.03
O=C(Nc1ccccc1F)C1CN(S(=O)(=O)C2CC2)C1,-9,1.41
CN(C)C(=O)CO[C@H]1CCOC[C@H]1NC(=O)c1ccc(N(C)C)cc1,8,-1.15
CC(=O)N(C)c1ccc(NC(=O)[C@H](C)c2cnn(C)c2)cn1,-7,0.95
CC(C)n1ccc(-c2nnc(NC(=O)c3cc(Cl)sc3Cl)o2)n1,-7,1.07
